Ki data for 26 compounds are collected here from patent US9873709B2 (priority 2013, dated 2018).

In the experiment the target is isolated recombinant JAK1 kinase domain (Homo sapiens (Human), UniProt P23458). Particulars: read-out: JAK1 Ki; isolated recombinant JAK1 kinase domain, 25 μM ATP.
Turning to `O=C(c1ccc(Nc2nc3c(N4CCC(O)(c5ccc(Cl)cc5)CC4)cccn3n2)cc1)N1CCCCC1c1cccnc1` (centres unmarked) [Example 1-110, [4-[[8-[4-(4-chlorophenyl)-4-hydroxy-1-piperidyl]-[1,2,4]triazolo[1,5-a]pyridin-2-yl]amino]phenyl]-[2-(3-pyridyl)-1-piperidyl]methanone], the Ki is 4.58 nM.

Take `CN(Cc1ccncc1)C(=O)c1ccc(Nc2nc3c(N4CCC(O)(c5ccc(Cl)cc5)CC4)cccn3n2)cc1` [Example 1-111, 4-[[8-[4-(4-chlorophenyl)-4-hydroxy-1-piperidyl]-[1,2,4]triazolo[1,5-a]pyridin-2-yl]amino]-N-methyl-N-(4-pyridylmethyl)benzamide]: the inhibitory constant (Ki) was 1.49 nM.

Regarding `O=C(c1ccc(Nc2nc3c(N4CCC(O)(c5ccc(Cl)cc5)CC4)cccn3n2)cc1)N1CCN(c2ccccn2)CC1` [Example 1-112, [4-[[8-[4-(4-chlorophenyl)-4-hydroxy-1-piperidyl]-[1,2,4]triazolo[1,5-a]pyridin-2-yl]amino]phenyl]-[4-(2-pyridyl)piperazin-1-yl]methanone], the Ki worked out at 11.4 nM.

Regarding `CN1CCN(C(=O)C2CCN(C(=O)c3ccc(Nc4nc5c(N6CCC(O)(c7ccc(Cl)cc7)CC6)cccn5n4)cc3)CC2)CC1` [Example 1-113, [4-[[8-[4-(4-chlorophenyl)-4-hydroxy-1-piperidyl]-[1,2,4]triazolo[1,5-a]pyridin-2-yl]amino]phenyl]-[4-(4-methylpiperazine-1-carbonyl)-1-piperidyl]methanone], the Ki was 1.64 nM.

For `O=C(c1ccc(Nc2nc3c(N4CCC(O)(c5ccc(Cl)cc5)CC4)cccn3n2)cc1)N1CCCN(c2ccncc2)CC1` [Example 1-114, [4-[[8-[4-(4-chlorophenyl)-4-hydroxy-1-piperidyl]-[1,2,4]triazolo[1,5-a]pyridin-2-yl]amino]phenyl]-[4-(4-pyridyl)-1,4-diazepan-1-yl]methanone], the inhibition constant Ki amounted to 1.86 nM.

For the compound `CCN(Cc1ccncc1)C(=O)c1ccc(Nc2nc3c(N4CCC(O)(c5ccc(Cl)cc5)CC4)cccn3n2)cc1` [Example 1-115, 4-[[8-[4-(4-chlorophenyl)-4-hydroxy-1-piperidyl]-[1,2,4]triazolo[1,5-a]pyridin-2-yl]amino]-N-ethyl-N-(4-pyridylmethyl)benzamide], the Ki was found to be 3.02 nM.

For the compound `O=C(c1ccc(Nc2nc3c(N4CCC(O)(c5ccc(Cl)cc5)CC4)cccn3n2)cc1)N1CCN(CCn2ccnc2)CC1` [Example 1-116, [4-[[8-[4-(4-chlorophenyl)-4-hydroxy-1-piperidyl]-[1,2,4]triazolo[1,5-a]pyridin-2-yl]amino]phenyl]-[4-(2-imidazol-1-ylethyl)piperazin-1-yl]methanone], the Ki was 2.95 nM.

Turning to `CN1CCN(C2CCN(C(=O)c3ccc(Nc4nc5c(N6CCC(O)(c7ccc(Cl)cc7)CC6)cccn5n4)cc3)CC2)CC1` [Example 1-117, [4-[[8-[4-(4-chlorophenyl)-4-hydroxy-1-piperidyl]-[1,2,4]triazolo[1,5-a]pyridin-2-yl]amino]phenyl]-[4-(4-methylpiperazin-1-yl)-1-piperidyl]methanone], the inhibition constant Ki was found to be 2.52 nM.

`CC1CN(C2CCN(C(=O)c3ccc(Nc4nc5c(N6CCC(O)(c7ccc(Cl)cc7)CC6)cccn5n4)cc3)CC2)CC(C)O1` (centres unmarked) [Example 1-118, [4-[[8-[4-(4-chlorophenyl)-4-hydroxy-1-piperidyl]-[1,2,4]triazolo[1,5-a]pyridin-2-yl]amino]phenyl]-[4-(2,6-dimethylmorpholin-4-yl)-1-piperidyl]methanone]: the Ki came to 2.69 nM.

Regarding `O=C(c1ccc(Nc2nc3c(N4CCC(O)(c5ccc(Cl)cc5)CC4)cccn3n2)cc1)N1CCN(CCN2CCOCC2)CC1` [Example 1-119, [4-[[8-[4-(4-chlorophenyl)-4-hydroxy-1-piperidyl]-[1,2,4]triazolo[1,5-a]pyridin-2-yl]amino]phenyl]-[4-(2-morpholinoethyl)piperazin-1-yl]methanone], the Ki came out at 2.66 nM.

In the case of `COCCN(C(=O)c1ccc(Nc2nc3c(N4CCC(O)(c5ccc(Cl)cc5)CC4)cccn3n2)cc1)C1CCN(C)CC1` [Example 1-120, 4-[[8-[4-(4-chlorophenyl)-4-hydroxy-1-piperidyl]-[1,2,4]triazolo[1,5-a]pyridin-2-yl]amino]-N-(2-methoxyethyl)-N-(1-methyl-4-piperidyl)benzamide], the inhibitory constant (Ki) was 5.1 nM.

Take `O=C(c1ccc(Nc2nc3c(N4CCC(O)(c5ccc(Cl)cc5)CC4)cccn3n2)cc1)N1CCCCC1Cc1ccccn1` (centres unmarked) [Example 1-121, [4-[[8-[4-(4-chlorophenyl)-4-hydroxy-1-piperidyl]-[1,2,4]triazolo[1,5-a]pyridin-2-yl]amino]phenyl]-[2-(2-pyridylmethyl)-1-piperidyl]methanone]: the inhibition constant (Ki) turned out to be 2.97 nM.

Consider `O=C(c1ccc(Nc2nc3c(N4CCC(O)(c5ccc(Cl)cc5)CC4)cccn3n2)cc1)N1CCN(Cc2ccccn2)CC1` [Example 1-122, [4-[[8-[4-(4-chlorophenyl)-4-hydroxy-1-piperidyl]-[1,2,4]triazolo[1,5-a]pyridin-2-yl]amino]phenyl]-[4-(2-pyridylmethyl)piperazin-1-yl]methanone], for which the Ki came out at 2.71 nM.

Turning to `O=C(c1ccc(Nc2nc3c(N4CCC(O)(c5ccc(Cl)cc5)CC4)cccn3n2)cc1)N1CCN(Cc2cccnc2)CC1` [Example 1-123, [4-[[8-[4-(4-chlorophenyl)-4-hydroxy-1-piperidyl]-[1,2,4]triazolo[1,5-a]pyridin-2-yl]amino]phenyl]-[4-(3-pyridylmethyl)piperazin-1-yl]methanone], the Ki came out at 2.57 nM.

With `O=C(c1ccc(Nc2nc3c(N4CCC(O)(c5ccc(Cl)cc5)CC4)cccn3n2)cc1)N1CCCC1Cc1ccccn1` (centres unmarked) [Example 1-124, [4-[[8-[4-(4-chlorophenyl)-4-hydroxy-1-piperidyl]-[1,2,4]triazolo[1,5-a]pyridin-2-yl]amino]phenyl]-[2-(2-pyridylmethyl)pyrrolidin-1-yl]methanone], the Ki was determined as 5.42 nM.

With `O=C(c1ccc(Nc2nc3c(N4CCC(O)(c5ccc(Cl)cc5)CC4)cccn3n2)cc1)N1CCC(N2CCOCC2)CC1` [Example 1-125, [4-[[8-[4-(4-chlorophenyl)-4-hydroxy-1-piperidyl]-[1,2,4]triazolo[1,5-a]pyridin-2-yl]amino]phenyl]-(4-morpholino-1-piperidyl)methanone], the Ki turned out to be 2.25 nM.

On to `O=C(c1ccc(Nc2nc3c(N4CCC(O)(c5ccc(Cl)cc5)CC4)cccn3n2)cc1)N1CCN(c2cccnc2)CC1` [Example 1-126, [4-[[8-[4-(4-chlorophenyl)-4-hydroxy-1-piperidyl]-[1,2,4]triazolo[1,5-a]pyridin-2-yl]amino]phenyl]-[4-(3-pyridyl)piperazin-1-yl]methanone], for which the Ki was found to be 3.22 nM.

As to `O=C(c1ccc(Nc2nc3c(N4CCC(O)(c5ccc(Cl)cc5)CC4)cccn3n2)cc1)N1CCC(N2CCOCC2)C1` (centres unmarked) [Example 1-127, [4-[[8-[4-(4-chlorophenyl)-4-hydroxy-1-piperidyl]-[1,2,4]triazolo[1,5-a]pyridin-2-yl]amino]phenyl]-(3-morpholinopyrrolidin-1-yl)methanone], the inhibition constant Ki is 1.99 nM.

As for `CN1CCC(N(C(=O)c2ccc(Nc3nc4c(N5CCC(O)(c6ccc(Cl)cc6)CC5)cccn4n3)cc2)C2CC2)CC1` [Example 1-128, 4-[[8-[4-(4-chlorophenyl)-4-hydroxy-1-piperidyl]-[1,2,4]triazolo[1,5-a]pyridin-2-yl]amino]-N-cyclopropyl-N-(1-methyl-4-piperidyl)benzamide], the Ki is 4.48 nM.

As to `CC(C)N1CCC(CN(C)C(=O)c2ccc(Nc3nc4c(N5CCC(O)(c6ccc(Cl)cc6)CC5)cccn4n3)cc2)C1` (centres unmarked) [Example 1-129, 4-[[8-[4-(4-chlorophenyl)-4-hydroxy-1-piperidyl]-[1,2,4]triazolo[1,5-a]pyridin-2-yl]amino]-N-[(1-isopropylpyrrolidin-3-yl)methyl]-N-methyl-benzamide], the Ki worked out at 1.87 nM.

For the compound `CC(C)N1CCC(N(C)C(=O)c2ccc(Nc3nc4c(N5CCC(O)(c6ccc(Cl)cc6)CC5)cccn4n3)cc2)CC1` [Example 1-130, 4-[[8-[4-(4-chlorophenyl)-4-hydroxy-1-piperidyl]-[1,2,4]triazolo[1,5-a]pyridin-2-yl]amino]-N-(1-isopropyl-4-piperidyl)-N-methyl-benzamide], the Ki was 3.71 nM.

Regarding `CC(C)CN1CCN(C(=O)c2ccc(Nc3nc4c(N5CCC(O)(c6ccc(Cl)cc6)CC5)cccn4n3)cc2)CC1` [Example 1-131, [4-[[8-[4-(4-chlorophenyl)-4-hydroxy-1-piperidyl]-[1,2,4]triazolo[1,5-a]pyridin-2-yl]amino]phenyl]-(4-isobutylpiperazin-1-yl)methanone], the Ki stood at 7.2 nM.

As for `O=C(c1ccc(Nc2nc3c(N4CCC(O)(c5ccc(Cl)cc5)CC4)cccn3n2)cc1)N1CCC(N2CCCC2)CC1` [Example 1-132, [4-[[8-[4-(4-chlorophenyl)-4-hydroxy-1-piperidyl]-[1,2,4]triazolo[1,5-a]pyridin-2-yl]amino]phenyl]-(4-pyrrolidin-1-yl-1-piperidyl)methanone], the inhibitory constant (Ki) was found to be 2.79 nM.

Turning to `COCCN1CCN(C(=O)c2ccc(Nc3nc4c(N5CCC(O)(c6ccc(Cl)cc6)CC5)cccn4n3)cc2)CC1` [Example 1-133, [4-[[8-[4-(4-chlorophenyl)-4-hydroxy-1-piperidyl]-[1,2,4]triazolo[1,5-a]pyridin-2-yl]amino]phenyl]-[4-(2-methoxyethyl)piperazin-1-yl]methanone], the Ki worked out at 2.78 nM.

For the compound `CN(CCc1ccncc1)C(=O)c1ccc(Nc2nc3c(N4CCC(O)(c5ccc(Cl)cc5)CC4)cccn3n2)cc1` [Example 1-135, 4-[[8-[4-(4-chlorophenyl)-4-hydroxy-1-piperidyl]-[1,2,4]triazolo[1,5-a]pyridin-2-yl]amino]-N-methyl-N-[2-(4-pyridyl)ethyl]benzamide], the Ki came out at 1.48 nM.

On to `O=C(c1ccc(Nc2nc3c(N4CCC(O)(c5ccc(Cl)cc5)CC4)cccn3n2)cc1)N1CCN(CC2CC2)CC1` [Example 1-136, [4-[[8-[4-(4-chlorophenyl)-4-hydroxy-1-piperidyl]-[1,2,4]triazolo[1,5-a]pyridin-2-yl]amino]phenyl]-[4-(cyclopropylmethyl)piperazin-1-yl]methanone], for which the Ki came to 3.42 nM.

Usually Ki stands for a dissociation constant, usually derived from enzyme kinetics or from competition with a known ligand.
